The other results are listed elsewhere or left out. Sequences were assembled here from the parent chain. Inactive controls read about 0.05.
B1: TEV protease; numbered along this chain (parent)
chain: MGESLFKGPRDYNPISSSICHLTNESDGHTTSLYGIGFGPFIITNKHLFRRNNGTLVVQSLHGVFKVKDTTTLQQHLVDGRDMIIIRMPKDFPPFPQKLKFREPQREERICLVTTNFQTKSMSSMVSDTSCTFPSGDGIFWKHWIQTKDGQCGSPLVSTRDGFIVGIHSASNFTNTNNYFTSVPKNFMELLTNQEAQQWVSGWRLNADSVLWGGHKVFMVKPEEPFQPVKEATQL

Variants of: B1
Experiment: raw area under fraction-flipped curve 0-4 h after induction (AUC4h, not background-subtracted), DNA-recorder readout of cleavage of the substrate (dimensionless); higher = more cleavage of the substrate by the protease variant
Settings: temperature: 34 °C; time window: 0-4 h after rhamnose induction
Method: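 In vivo DNA recorder in E. coli TOP10(DE3) ΔrhaA at 34 °C. Each TEVp single-site mutant (parent TEVp 0) is paired with a single-site variant of the 7-mer TEVs (canonical ENLYFQ|S). The substrate sits between flexible linkers in a Bxb1-sfGFP-TEVs-SsrA fusion, so cleavage stabilises Bxb1 and speeds flipping of a recombination array, read by NGS. The value is the raw area under the fraction-flipped curve over 0-4 h after rhamnose induction (AUC4h), with ≥20 reads per time point. It is not background-subtracted; inactive controls average about 0.047.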
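Also: Bxb1 expression induced with 0.2% (w/v) L-rhamnose at OD600 near 0.5, cultures sampled hourly, flipped fraction per protease–substrate barcode pair counted by paired-end Illumina sequencing.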

Row | Variant | area with substrate CNLYFQS | area with substrate DNLYFQS | area with substrate FNLYFQS | area with substrate HNLYFQS | area with substrate KNLYFQS | area with substrate LNLYFQS | area with substrate MNLYFQS | area with substrate PNLYFQS | area with substrate TNLYFQS | area with substrate VNLYFQS | area with substrate WNLYFQS | area with substrate YNLYFQS | area with substrate GNLYFQS | area with substrate INLYFQS | area with substrate NNLYFQS | area with substrate SNLYFQS | area with substrate QNLYFQS | area with substrate RNLYFQS
1 | F41P | 0.0445 | 0.0476 | 0.0406 | 0.0412 | 0.0554 | 0.0453 | 0.0533 | 0.0517 | 0.0582 | 0.0396 | 0.0491 | 0.0554 |  |  |  |  |  | 
2 | E3R | 0.0697 | 0.0796 |  | 0.0661 | 0.0696 |  | 0.0635 |  |  |  |  |  | 0.0661 | 0.0636 | 0.06 | 0.0774 |  | 
3 | Q194N | 0.0841 | 0.093 | 0.0608 | 0.064 | 0.0496 |  | 0.0425 |  | 0.0575 |  | 0.0525 | 0.0337 |  | 0.0508 |  |  |  | 
4 | L22S | 0.042 | 0.0444 | 0.0804 | 0.0396 | 0.0532 | 0.0453 | 0.0528 | 0.0479 | 0.0464 | 0.0492 | 0.0612 | 0.0486 | 0.0361 |  | 0.0516 | 0.0605 | 0.0292 | 
5 | Y179R | 0.0318 | 0.057 | 0.0555 | 0.0497 | 0.139 | 0.0462 |  | 0.0663 | 0.0611 |  | 0.0728 | 0.0644 |  |  | 0.0617 | 0.0571 |  | 
6 | P155I | 0.0546 | 0.0826 | 0.0572 | 0.0649 |  | 0.0632 | 0.0719 |  |  | 0.0638 | 0.0602 | 0.0508 | 0.0524 | 0.0512 |  | 0.0487 |  | 0.0542
7 | K185C | 0.0758 | 0.109 | 0.0521 | 0.0664 | 0.0492 | 0.0569 | 0.0697 | 0.085 | 0.0715 |  | 0.0578 | 0.0938 | 0.0848 | 0.0575 | 0.0687 | 0.0581 |  | 
8 | L191P | 0.0429 | 0.0563 |  |  |  |  | 0.0494 | 0.0378 | 0.059 | 0.0705 | 0.0498 | 0.0668 | 0.0572 | 0.0459 |  |  |  | 
9 | S26E | 0.0629 | 0.0733 | 0.0669 | 0.0626 | 0.0706 | 0.0569 |  | 0.0725 | 0.0621 | 0.0716 | 0.0682 |  | 0.0532 | 0.0634 | 0.0693 | 0.07 |  | 
10 | A207K | 0.0657 | 0.0852 | 0.0628 | 0.0722 |  | 0.0548 | 0.0753 |  |  |  | 0.0469 |  |  | 0.0646 |  |  |  | 
11 | V183D | 0.0403 | 0.0551 |  | 0.0526 |  | 0.0468 | 0.0526 | 0.0618 | 0.0509 |  | 0.0472 | 0.0459 | 0.0511 | 0.0474 | 0.0455 | 0.0579 |  | 
12 | S135N | 0.0617 | 0.0544 |  | 0.0612 | 0.0553 | 0.0241 | 0.0562 | 0.0541 | 0.0493 |  | 0.066 | 0.0607 | 0.0596 |  | 0.068 | 0.0658 | 0.0767 | 0.0472
13 | Q97A | 0.0579 | 0.0736 |  | 0.0635 |  | 0.063 |  | 0.0714 |  | 0.0591 | 0.0538 | 0.0567 | 0.128 |  |  |  |  | 0.0706
14 | K100G | 0.0655 | 0.0694 |  | 0.0609 |  |  | 0.0663 | 0.0556 | 0.0664 | 0.0631 | 0.0545 | 0.06 |  |  | 0.0529 | 0.0555 |  | 
15 | R50C | 0.0821 | 0.0694 | 0.0744 |  |  | 0.0527 |  | 0.0487 | 0.0623 | 0.0709 | 0.0694 |  |  |  |  | 0.0655 |  | 
16 | I84S | 0.0378 | 0.0519 |  | 0.066 | 0.0658 | 0.0523 | 0.0785 | 0.0578 |  | 0.0545 | 0.0525 | 0.0649 | 0.0422 | 0.0491 | 0.0623 |  | 0.0747 | 
17 | Q234V | 0.0725 | 0.0838 |  | 0.104 | 0.0569 | 0.0524 |  | 0.0708 | 0.0724 | 0.0886 | 0.0557 | 0.062 | 0.0533 | 0.065 |  |  |  | 
18 | H21V | 0.0669 | 0.0762 | 0.0308 | 0.0578 | 0.0647 | 0.0621 | 0.0674 | 0.0718 | 0.0617 | 0.0516 | 0.0552 |  | 0.0574 | 0.0686 |  | 0.067 | 0.114 | 0.0601
19 | A196W | 0.0792 | 0.0847 |  |  |  |  | 0.0493 | 0.0724 | 0.0668 |  | 0.0508 |  | 0.067 |  |  | 0.0607 |  | 
20 | G54W | 0.0521 | 0.0577 |  | 0.0512 | 0.0608 | 0.0621 | 0.0422 | 0.0584 | 0.0603 |  | 0.0576 | 0.054 |  | 0.0634 | 0.0555 |  |  | 
21 | G54K | 0.0621 | 0.0705 |  | 0.0632 | 0.0539 |  |  |  | 0.0513 |  |  |  |  |  |  | 0.0622 |  | 
22 | K98F | 0.0787 | 0.0728 |  | 0.0594 | 0.0751 |  |  | 0.0674 |  |  |  | 0.0414 |  | 0.0909 | 0.0713 |  |  | 
23 | K98N | 0.076 | 0.0783 |  | 0.0696 | 0.0687 | 0.055 | 0.0565 | 0.0623 | 0.0675 | 0.0691 | 0.0651 | 0.0553 | 0.0691 | 0.0692 | 0.0844 | 0.0677 |  | 
24 | N177I | 0.0974 | 0.152 |  | 0.0966 | 0.0889 | 0.0952 |  |  |  |  | 0.0698 |  |  | 0.148 | 0.126 | 0.0898 |  | 
25 | Q197V | 0.0618 | 0.0636 | 0.0565 | 0.0445 | 0.058 | 0.0569 | 0.06 | 0.0911 | 0.0575 | 0.0557 | 0.0855 | 0.0675 | 0.0927 |  | 0.0907 | 0.0644 |  | 0.0538
26 | D27G | 0.0597 | 0.0616 |  |  | 0.073 | 0.0655 | 0.0671 |  |  | 0.0455 | 0.0667 |  |  | 0.049 |  |  |  | 0.06
27 | L73R | 0.0541 | 0.0453 |  | 0.0606 | 0.0675 | 0.0573 | 0.0196 | 0.0749 | 0.052 |  |  |  |  | 0.0454 | 0.0577 | 0.0546 |  | 
28 | G136D | 0.0667 | 0.072 | 0.0422 | 0.0694 | 0.0386 | 0.0446 | 0.0808 | 0.0524 | 0.0737 |  | 0.0616 |  | 0.0728 | 0.059 | 0.0559 | 0.0648 |  | 
29 | K90H | 0.0697 | 0.0719 |  | 0.0609 | 0.0501 | 0.0648 | 0.0896 | 0.0712 | 0.0675 | 0.0644 | 0.0576 | 0.0675 | 0.0641 | 0.0595 | 0.0583 | 0.078 |  | 

— the supplement of paper PMC12217912
